The nature of the experiment: qHTS Assay for Lipid Storage Modulators (AID 1519). To be noted: Drosophila S3 cells, BODIPY lipid droplet/cell ratio, laser cytometry, cells loaded with oleic acid. Summed up:
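Cells seeded at 5,000 per well were treated with compounds over a concentration series and loaded with oleic acid (400 uM, as added). Lipid droplet fluorescence (488 nm excitation, 500-530 nm channel) was read by laser-scanning cytometry and normalized to 20 uM Triacsin C.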
For orientation: Quantitative high-throughput screening tests each substance at several concentrations.

Where [1] appears, read: measured here: cell count channel max response.
Where [2] appears, read: measured here: cell number channel AC50.
Setting [3] is: measured here: lipid (BODIPY) channel AC50.
Where [4] appears, read: measured here: lipid channel max response.

Here are results for 17 molecules from PubChem BioAssay (NCATS).

Some of the results follow. The main result of the screen is listed elsewhere. These columns were measured beside it and carry no call. Compounds called inactive in the main read-out are mostly missing here. Words in brackets tell the shape of the fitted curve; partial curves, single points and poor fits give uncertain potencies. Bridge positions count the residues as written; N and C are the ends. Square brackets hold non-standard residues; d marks the D form. Peptide text beside a SMILES is read from it. * marks the point of attachment. Octanoyl(6-Me) = CCC(C)CCCCC(=O)*; Dab = NCC[CH](N)C(=O)O
Tags tell the direction and shape of the fitted curve.

With `COc1cccc(Cn2c(=O)c(-c3cccs3)nc3cnc(OC)nc32)c1`, the max response worked out at 21.7% under setting [1] and 26.7% under setting [4]. The half-maximal activity concentration (AC50) (commonly the concentration at which the activity in the assay is half-maximal) reads like this: under setting [2], 0.708 µM [rising, full curve, poor fit]; under setting [3], 0.631 µM [rising, full curve, poor fit].
With `CC12CCC3c4ccc(O)cc4CCC3C1CCC2=O` (stereo not drawn), the max response came out at 48.7% under setting [1] and 59.1% under setting [4]. In addition, the AC50 runs as follows: under setting [2], 28.2 µM [rising, partial curve, poor fit]; under setting [3], 35.5 µM [rising, partial curve, poor fit].
Turning to `COc1ccccc1CNc1ccnc(-c2c(C)noc2C)n1`, the max response reads like this: under setting [1], 17.6%; under setting [4], 24%. Also, the AC50 runs as follows: under setting [2], 0.631 µM [rising, partial curve]; under setting [3], 1.26 µM [rising, partial curve].
Turning to `O=C(O)c1cc(=O)cc(C(=O)O)[nH]1`, the max response is, setting by setting: under setting [1], 31.8%; under setting [4], 30.3%. For the same molecule, the AC50 under setting [2] was 39.8 µM [rising, single point] and the half-maximal activity concentration (AC50) under setting [3] is 44.7 µM [rising, single point].
Take `COc1ccc(Oc2ncc3nc(CCc4ccccc4)c(=O)n(CCC#N)c3n2)cc1`: the max response by setting is: under setting [1], 0.462%; under setting [4], 4.68%. Moreover, the AC50 runs as follows: under setting [2], 3.55 µM [rising, partial curve, poor fit]; under setting [3], 2.82 µM [rising, partial curve].
`NCCCCCCNS(=O)(=O)c1ccc2c(Cl)cccc2c1`: the max response came out at 92.5% under setting [1] and 115% under setting [4]. The AC50 by setting is: under setting [2], 31.6 µM [rising, partial curve, poor fit]; under setting [3], 31.6 µM [rising, partial curve, poor fit].
In the case of `CN(C)c1ccc(-c2cncnc2-n2ccnc2)cc1`, the max response under setting [1] came to 32.8% and the max response under setting [4] was found to be 38.4%. For the same molecule, the concentration at half-maximal activity (AC50) by setting is: under setting [2], 0.631 µM [rising, full curve]; under setting [3], 0.794 µM [rising, full curve].
For `COC(=O)N1CCC2(CC1)CCN(c1ncccn1)CC2`, the max response was found to be 28.9% under setting [1] and 43.5% under setting [4]. In addition, the AC50 reads like this: under setting [2], 1.26 µM [rising, full curve, poor fit]; under setting [3], 1 µM [rising, full curve].
In the case of `CCC(C)CCCCC(=O)NC(CCN)C(=O)NC(C(=O)NC(CCN)C(=O)NC1CCNC(=O)C(C(C)O)NC(=O)C(CCN)NC(=O)C(CCN)NC(=O)C(CC(C)C)NC(=O)C(Cc2ccccc2)NC(=O)C(CCN)NC1=O)C(C)O` (stereo not drawn) ({Octanoyl(6-Me)}-[Dab]T[Dab][Dab][Dab]FL[Dab][Dab]T; lactam 4-C; configuration not given here), the max response under setting [1] amounted to 32.7% and the max response under setting [4] worked out at 54.3%. Moreover, the AC50 was 11.2 µM [rising, partial curve, poor fit] under setting [2] and 25.1 µM [rising, partial curve, poor fit] under setting [3].
With `NCCCCCCNS(=O)(=O)c1cccc2ccccc12`, the max response reads like this: under setting [1], 75.6%; under setting [4], 106%. The concentration at half-maximal activity (AC50) was 12.6 µM [rising, partial curve] under setting [2] and 14.1 µM [rising, partial curve] under setting [3].
With `COc1ccc(CNc2ncncc2-c2ccc(N(C)C)cc2)c(OC)c1`, the max response by setting is: under setting [1], 23.9%; under setting [4], 27.6%. Moreover, the AC50 is, setting by setting: under setting [2], 1.78 µM [rising, full curve]; under setting [3], 1.12 µM [rising, full curve, poor fit].
As to `COCCNc1nc(-c2ccc(C(=O)N(C)C)cc2)nc2ccccc12`, the max response is 31.7% under setting [1] and 41.1% under setting [4]. The AC50 was 1.12 µM [rising, full curve] under setting [2] and 0.631 µM [rising, full curve, poor fit] under setting [3].
Regarding `O=c1c(-c2cccs2)nc2cnc(N3CCNCC3)nc2n1-c1ccccc1`, the max response by setting is: under setting [1], 39.6%; under setting [4], 49.7%. Further, the AC50 by setting is: under setting [2], 20 µM [rising, partial curve, poor fit]; under setting [3], 20 µM [rising, partial curve].
With `O=C(c1cnccn1)N1CCC2(CCCN(c3ccc(-c4ccccc4)cc3)C2)CC1`, the max response under setting [1] was 23.2% and the max response under setting [4] came to 38.5%. The AC50 reads like this: under setting [2], 0.631 µM [rising, full curve, poor fit]; under setting [3], 0.112 µM [rising, full curve].
Turning to `O=c1c(-c2cccs2)nc2cnc(Oc3ccccc3)nc2n1Cc1cccs1`, the max response under setting [1] worked out at 22.8% and the max response under setting [4] was -85.9%. The half-maximal activity concentration (AC50) is 0.2 µM [rising, full curve] under setting [2] and 1.78 µM [falling, full curve] under setting [3].
As to `COc1ccc(C(=O)N2CCC[C@@]3(CCN(C(=O)Nc4cccc(F)c4)C3)C2)cc1`, the max response is 33.1% under setting [1] and 45.7% under setting [4]. Besides, the half-maximal activity concentration (AC50) by setting is: under setting [2], 3.98 µM [rising, full curve, poor fit]; under setting [3], 5.01 µM [rising, partial curve].
In the case of `Nc1cc(-c2ccncc2)c[nH]c1=O`, the max response is 31% under setting [1] and 48.2% under setting [4]. Besides, the half-maximal activity concentration (AC50) under setting [2] was 3.98 µM [rising, partial curve, poor fit] and the concentration at half-maximal activity (AC50) under setting [3] was 25.1 µM [rising, partial curve, poor fit].
